Data reported in PubChem BioAssay (NCATS).
The inconclusive results got no clear call from the source; some entries with a clear call stand among them for comparison. For some assays here: Where the call is inconclusive, the potency comes from a doubtful curve fit. Active and inactive are the calls of the source. Unless noted, calls come from the whole dose curve; as a rule, active = well fitted curve in the direction sought with a large enough effect; inconclusive = small, poorly fitted or top-dose-only effect, or another doubt; inactive = no such curve, though single readings can be large; an effect the other way counts as inactive or inconclusive.

Experiments:
[1] = Primary qHTS for inhibitors of nuclear receptor binding SET domain protein 2 (NSD2) in an RCH-ACV wild type WT cells (2C) (AID 1645877); conditions: activity change, negative = cell killing: at 44.9 µM (top of the series) unless noted; note: nearly all actives have a fitted effect of over 70% in size; note: potency is the fitted concentration of half-maximal effect
[2] = Primary fluorescence-based thiol-reactive (MSTI) qHTS assay for identification of artifact compounds. (AID 1845221);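 note: potency is the fitted concentration of half-maximal effect; thiol-reactive compounds lower the probe fluorescence signal; nearly all actives have a fitted effect of over 65% in size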
In short: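 One-hour, room-temperature, dark incubation of compound with 4 uM MSTI in PBS (pH 7.4, 2% DMSO) precedes a fluorescence read at 525 nm excitation, 598 nm emission; Hill-equation fitting yields concentration-response values.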

[3] = Primary redox qHTS assay for identification of artifact compounds. (AID 1845223); note: potency is the fitted concentration of half-maximal effect
In short: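 Redox-cycling detection via DTT (250 uM final) oxidation coupled to Amplex Red (25 uM)/HRP (250 mU/mL) in HBSS. 15 min preincubation plus 30 min after DTT, room temperature. Ex/Em 525/598 nm; 4-parameter Hill fit against DMSO and 10 uM DA3003.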

HaCat = experiment: Cytotoxic Profiling of Annotated Libraries Using Quantitative High-Throughput Screening (AID 1296008); conditions: Five cell lines viability, CellTiter-Glo ATP luminescence, 48-72 h; max response: active compounds read low; note: nearly all actives have a fitted effect of over 60% in size; note: potency is the fitted concentration of half-maximal effect; for max response: % is set by controls: 0 for no effect and ±100 for the full control effect
In short: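 Cytotoxicity was measured as CellTiter-Glo ATP luminescence, read after 10 min at room temperature. Compound treatment of the cells lasted 48 or 72 hr at 37 degrees Celsius in a qHTS format.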

SKOV3 = experiment: Primary qHTS to identify gynecologic anti-cancer compounds using libraries of approved drugs and bioactive compounds (AID 1345084); conditions: Gynecologic cancer cell panel viability, ATPlite luminescence, 48 h; series mostly up to 57.5 µM; note: nearly all actives have a fitted effect of over 55% in size; note: potency is the fitted concentration of half-maximal effect; for activity change, negative = cytotoxicity: % is set by controls: 0 for no effect and ±100 for the full control effect
In short: (§1)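 In this quantitative HTS, cell killing is estimated from loss of ATP-dependent luciferase light. Cells see five compound concentrations over a 48 h exposure.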

[4] = P-glycoprotein substrates identified in KB-3-1 adenocarcinoma cell line, qHTS therapeutic library screen (AID 1346986); note: nearly all actives have a fitted effect of over 60% in size
In short: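 Viability read by CellTiter-Glo after 72 h compound exposure in dose-response of KB-3-1 and KB-8-5-11 (P-gp-high) cells. Hits needed AC50 < 10 uM, >50% maximum response and curve class -1.1 to -2.4. Cherry-picks retested ± tariquidar, including pcDNA/MDR-19 HEK-293 pair.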

[5] = tested on: Zika virus NS2B-NS3 protease (unlinked complex); experiment: Primary screen GU Rhodamine qHTS for Zika virus inhibitors: Unlinked NS2B-NS3 protease assay (AID 1347159); conditions: Recombinant ZIKV NS2B-NS3 protease, Rhodamine110 substrate fluorescence; activity change, negative = inhibition: at 107 µM (top of the series); note: potency is the fitted concentration of half-maximal effect; nearly all actives have a fitted effect of over 60% in size
In short: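 In dose–response format, inhibition of unlinked protease (25 nM) was measured with 1.5 microM bis-peptide Rhodamine110 substrate. Aprotinin served as the intraplate control.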

[6] = Primary qHTS for inhibitors of nuclear receptor binding SET domain protein 2 (NSD2) in an isogenic RCH-ACV NSD2 p.E1099K mutant (9B) (AID 1645876); conditions: activity change, negative = viability loss: at 44.9 µM (top of the series) unless noted; note: nearly all actives have a fitted effect of over 70% in size; note: potency is the fitted concentration of half-maximal effect; for activity change, negative = viability loss: % is set by controls: 0 for no effect and ±100 for the full control effect
[7] = tested on: Zika virus NS2B-NS3 protease (linked construct); experiment: Primary screen NINDS Rhodamine qHTS for Zika virus inhibitors (AID 1347160); note: % is set by controls: 0 for no effect and ±100 for the full control effect; nearly all actives have a fitted effect of over 55% in size
In short: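 Each compound, titrated, sat 15 min with 25 nM linked protease before 1.5 microM Rhodamine110 substrate went in. Fluorescence gain over the next 15 min, in pH 8.0 Tris with Tween 20, gave Hill-fitted curves.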

Tov112D = experiment: Primary qHTS to identify gynecologic anti-cancer compounds using libraries of approved drugs and bioactive compounds (AID 1345084); conditions: Gynecologic cancer cell panel viability, ATPlite luminescence, 48 h; series mostly up to 57.5 µM; note: nearly all actives have a fitted effect of over 55% in size; note: potency is the fitted concentration of half-maximal effect; for activity change, negative = cytotoxicity: % is set by controls: 0 for no effect and ±100 for the full control effect
In short: as §1

[8] = molecular target: N-terminal Xaa-Pro-Lys N-methyltransferase 1 (Homo sapiens) (UniProt Q9BV86); experiment: Confirmatory qHTS for Inhibitors of N-terminal methyltransferase 1 (NTMT1): MTaseGlo Assay (AID 1645874);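 note: luminescence from SAH made as NTMT1 methylates SPKRIA peptide using SAM; 0% = DMSO control and -100% = no-enzyme control; nearly all actives have a fitted effect of over 65% in size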
UniProt Q9BV86, sequence (Q9BV86 whole entry, looked up): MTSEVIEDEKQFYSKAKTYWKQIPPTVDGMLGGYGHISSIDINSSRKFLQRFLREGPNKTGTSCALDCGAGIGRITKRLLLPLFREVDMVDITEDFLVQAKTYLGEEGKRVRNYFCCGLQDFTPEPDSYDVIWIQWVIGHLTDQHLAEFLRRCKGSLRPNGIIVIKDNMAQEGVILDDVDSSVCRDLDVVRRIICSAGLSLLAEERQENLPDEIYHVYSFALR
In short: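 Inhibition was derived from luminescence after SAH-to-ATP conversion, scaled between no-enzyme and DMSO wells, then fitted by 4-parameter Hill. Conditions: 125 nM NTMT1, 100 uM SAM, 1 uM SPKRIA, 30 min RT.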

[9] = P-glycoprotein substrates identified in KB-8-5-11 adenocarcinoma cell line, qHTS therapeutic library screen (AID 1346987); conditions: activity change, negative = cytotoxicity: at 44.5 µM (top of the series); note: nearly all actives have a fitted effect of over 65% in size
In short: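 Compounds are pinned in dose-response onto KB-8-5-11 cells (500 cells/well, colchicine-free medium) and left 72 h at 37 degree C. CellTiter-Glo luminescence then yields AC50 values.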

[10] = molecular target: Cytochrome P450 2D6 (Homo sapiens) (UniProt P10635); experiment: Cytochrome P450 family 2 subfamily D member 6 (CYP2D6) small molecule antagonists: luciferase biochemical (cell-free) qHTS assay (AID 1645840; active = well fitted curve in the direction sought with a large enough effect in the repeat runs; inconclusive = weak or mixed curves; inactive = no such curve, though single readings can be large; an effect the other way counts as inactive or inconclusive; note: potency is the fitted concentration of half-maximal effect; nearly all actives have a fitted effect of over 55% in size)
UniProt P10635, sequence (P10635 whole entry, looked up): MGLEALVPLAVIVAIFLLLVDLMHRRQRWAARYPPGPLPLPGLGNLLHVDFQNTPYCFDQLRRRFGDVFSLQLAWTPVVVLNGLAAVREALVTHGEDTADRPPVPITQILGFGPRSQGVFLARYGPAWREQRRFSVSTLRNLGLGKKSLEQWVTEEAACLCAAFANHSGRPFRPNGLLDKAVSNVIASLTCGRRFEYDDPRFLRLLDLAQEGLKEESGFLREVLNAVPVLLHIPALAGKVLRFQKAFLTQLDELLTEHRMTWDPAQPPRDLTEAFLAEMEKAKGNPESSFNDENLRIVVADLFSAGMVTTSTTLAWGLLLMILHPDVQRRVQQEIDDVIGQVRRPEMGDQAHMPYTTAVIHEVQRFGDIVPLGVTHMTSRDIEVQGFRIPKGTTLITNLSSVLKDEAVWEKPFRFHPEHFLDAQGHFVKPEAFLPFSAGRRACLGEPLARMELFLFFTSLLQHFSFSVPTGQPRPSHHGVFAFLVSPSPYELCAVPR
In short: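 P450-Glo CYP2D6 system: proluciferin substrate converted by enzyme to luciferin, read by luminescence proportional to activity. Enzyme-substrate mix with compound 10 min at room temperature, then NADPH regeneration 1 h before detection reagent.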
Tags give direction and shape of the fitted curve.

COc1cc(N)c(Cl)cc1C(=O)NC[C@@H]1CCN2CCC[C@@H]12
Potency [1]: inconclusive: 0.0183 µM [inhibitor, full curve]
Potency [2]: inconclusive: 4.74 µM [inhibitor, full curve]
Potency [3]: inconclusive: 33.6 µM [activator, single point]
Potency (HaCat): inconclusive: 6.51 µM [inhibitor, single point]
Potency (SKOV3): inactive

CCC[C@@H]1O[C@@H]2C[C@H]3[C@@H]4CCC5=CC(=O)C=C[C@]5(C)[C@H]4[C@@H](O)C[C@]3(C)[C@]2(C(=O)CO)O1
Potency [4]: inactive
Potency [5]: inconclusive: 89.1 µM [inhibitor, single point]
Potency [6]: inconclusive: 0.0183 µM [inhibitor, full curve]
Potency (HaCat): inconclusive: 0.0291 µM [inhibitor, full curve, poor fit]
Potency (SKOV3): inactive

C/C=C/C=C/[C@@H]1O[C@](O)([C@H](CC)C(=O)NC/C=C/C=C(\C)[C@@H](OC)[C@@H](C)[C@@H]2O[C@H](/C=C/C=C/C=C(\C)C(=O)c3c(O)ccn(C)c3=O)[C@H](O)[C@@H]2O)[C@H](O)[C@H](O)C1(C)C
outcome [6]: inactive [at 9.23 µM]
Potency [3]: inconclusive: 1.42 µM [activator, full curve, poor fit]
outcome (HaCat): inactive
Potency (SKOV3): inconclusive: 0.224 µM [rising, full curve, poor fit]

O=C(/C=C/c1ccc(O)cc1)OC[C@H]1O[C@@H](O/C(=C\c2ccccc2)C(=O)O)[C@H](O)[C@@H](O)[C@@H]1O
Potency [7]: inactive
Potency [1]: inactive
outcome (HaCat): inactive
Potency (SKOV3): inactive

COc1cc2c(cc1O)C1(OC)Cc3ccc4c(c3C1N(C)CC2)OCO4 (stereo unspecified)
Potency [6]: inactive
Potency [2]: inconclusive: 5.21 µM [inhibitor, partial curve]
max response (HaCat): inactive: -3.77%
Potency (SKOV3): inactive

CC1(C)CC[C@]2(CO[C@@H]3O[C@H](CO)[C@@H](O)[C@H](O)[C@H]3O)[C@@H](O)C[C@]3(C)C(=CCC4[C@@]5(C)CC[C@H](O[C@@H]6O[C@H](CO[C@@H]7O[C@H](CO[C@@H]8OC[C@@H](O)[C@H](O)[C@H]8O)[C@@H](O)[C@H](O)[C@H]7O)[C@@H](O)[C@H](O)[C@H]6O)C(C)(C)C5CC[C@]43C)[C@@H]2C1 (stereo partly specified)
activity change, negative = viability loss [6]: inactive: -11.3% [at 9.23 µM]
max response (HaCat): inactive: -32.8%
activity change, negative = cytotoxicity (SKOV3): inactive: -1.91% [at 11.6 µM]
activity change, negative = cytotoxicity (Tov112D): inactive: -1.63% [at 11.6 µM]

Cc1cc2c(c(=O)[nH]1)OC(C(O)CC(C)C)O2 (stereo unspecified)
Potency [5]: inconclusive: 22.4 µM [inhibitor, partial curve]
Potency [8]: inactive
activity change, negative = cell killing [1]: inconclusive: -41.3% [inhibitor]
Potency [3]: inconclusive: 29.9 µM [activator, single point]
max response (HaCat): inactive: -1.41%
Potency (SKOV3): inactive

Nc1nc2c(ncn2[C@@H]2O[C@H](CO)[C@@H](O)[C@H]2O)c(=O)[nH]1
Potency [9]: inactive
Potency [6]: inactive
Potency (HaCat): inconclusive: 29.1 µM [inhibitor, partial curve, poor fit]
Potency (SKOV3): inactive

CCCCC(=O)N1c2ccccc2NC2=C(C(=O)CCC2)C1c1ccccc1Cl (stereo unspecified)
Potency [10]: inconclusive: 16.9 µM [inhibitor, single point]
Potency [6]: inconclusive: 29 µM [inhibitor, single point]
Potency [1]: inconclusive: 8.17 µM [inhibitor, partial curve]
outcome (HaCat): inactive
Potency (SKOV3): inconclusive: 3.16 µM [cytotoxic, single point]
